# Results reported in PubChem BioAssay AID1030 (National Center for Advancing Translational Sciences (NCATS), 2008).
# The campaign covered roughly 220,000 compounds. About 16,000 (7.3%) were called active. The shares of active, inactive and inconclusive entries below differ from those in the screen. Calls follow the shape of the dose curve; as a rule, active = well fitted inhibition curve with a large enough effect (not every such curve was filed as active); inconclusive = small, poorly fitted or top-dose-only effect, or another doubt; inactive = no such curve, though single readings can be large or run the other way. Potencies of inconclusive entries are left out as doubtful fits.
# Target: Aldehyde dehydrogenase 1A1 (Homo sapiens) (UniProt P00352)
# Assay: qHTS Assay for Inhibitors of Aldehyde Dehydrogenase 1 (ALDH1A1);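 as to activity, negative = inhibition: plate controls were no enzyme wells and a reference inhibitor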
# Settings: Purified ALDH1A1, NADH fluorescence, propionaldehyde substrate; series mostly up to 75.3 µM; activity, negative = inhibition: at the top concentration
# Potency is read from the fitted curve at half-maximal effect; tags tell the direction and shape of the fitted curve.
# Sequence of UniProt P00352 (P00352 whole entry, looked up): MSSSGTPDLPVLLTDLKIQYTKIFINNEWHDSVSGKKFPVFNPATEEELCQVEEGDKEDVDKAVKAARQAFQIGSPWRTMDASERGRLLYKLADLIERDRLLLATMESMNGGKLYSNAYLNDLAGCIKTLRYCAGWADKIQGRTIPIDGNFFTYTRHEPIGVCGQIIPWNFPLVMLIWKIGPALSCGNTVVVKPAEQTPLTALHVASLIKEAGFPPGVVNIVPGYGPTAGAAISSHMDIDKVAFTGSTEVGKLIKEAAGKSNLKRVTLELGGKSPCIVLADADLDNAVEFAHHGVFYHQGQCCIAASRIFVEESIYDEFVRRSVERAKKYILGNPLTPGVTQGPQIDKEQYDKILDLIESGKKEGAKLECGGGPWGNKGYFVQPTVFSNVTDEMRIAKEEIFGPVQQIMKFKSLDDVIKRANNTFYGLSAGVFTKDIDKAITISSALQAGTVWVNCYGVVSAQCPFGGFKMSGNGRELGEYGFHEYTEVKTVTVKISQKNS
SMILES,Potency,"activity, negative = inhibition"
CC(C)C[C@H](NC(=O)Nc1ccc(S(N)(=O)=O)cc1)C(=O)O,"inconclusive [inhibitor, partial curve, poor fit]",
Cc1cc(Nc2ccccc2)n(-c2ccc(Br)cc2)n1,,inactive: -15.5%
Cc1ccccc1N1C(=O)C(Cl)=C(N2CCN(c3ccccc3)CC2)C1=O,"inconclusive [inhibitor, partial curve]",
C=CCn1c(=N)c(C#N)cc2c(=O)n3ccccc3nc21,"inconclusive [inhibitor, partial curve]",
O=C(NC(Cc1ccccc1)c1ccc2c(c1)OCCCO2)c1ccccc1 (stereo not drawn),,inactive: -4.76%
CCOC(=O)N1CCN(S(=O)(=O)c2ccc(C(=O)Nc3nnc(CSC)o3)cc2)CC1,,inactive: -3.36%
COc1ccc(NC(=O)c2ccc(-c3nn(C)c(=O)c4ccccc34)cc2)cc1,,inactive: 4.83%
COc1ccccc1-c1cc(C(=O)N/N=C/c2ccc(C)s2)c2ccccc2n1,"inconclusive [inhibitor, single point]",
Cc1c(Cl)cccc1NC(=O)Cn1cc(C(F)(F)F)cc(Cl)c1=O,"inconclusive [inhibitor, single point]",
CCCCCNCc1cccc(Br)c1,,inactive: 0.62%
Cc1cccc(-n2c(N)c(C(=O)N3CCN(C)CC3)sc2=S)c1,active: 22.4 µM,
O=C(CSc1nc2ccccc2c(=O)n1-c1ccccc1)NCc1ccc2c(c1)OCO2,"inconclusive [inhibitor, full curve]",
C#CCOCCOCCOCCNc1nc(N2CCN(C(=O)Cn3cc(CCCCN)nn3)CC2)nc(N2CCN(C(=O)[C@H](C)n3cc(CCCN=C(N)N)nn3)CC2)n1,,inactive: 21.8%
S=C(Nc1cccc(Cl)c1)N(CCCN1CCCC1)Cc1cccn1Cc1ccc(Cl)cc1,"inconclusive [inhibitor, full curve]",
CCOc1ccc(NC(=O)CC(c2ccccc2)c2ccc(F)cc2)cc1 (stereo not drawn),,inactive: -5.45%
CCOc1ccc(S(=O)(=O)NC2CCCCCC2)cc1,"inconclusive [inhibitor, single point]",
Nc1cccc(C(=O)N/N=C/c2ccsc2)c1,,inactive: -0.484%
Cc1cc(N(CN2CCCC2=O)C(=O)c2ccc(OC(C)C)cc2)no1,"inconclusive [inhibitor, single point]",
COc1cc(/C=N/NC(N)=S)ccc1OCc1ccc(C)cc1,"inconclusive [inhibitor, single point]",
O=C(N=C1SCC(=O)N1c1ccccc1Cl)c1ccccc1,"inconclusive [inhibitor, single point]",
Cn1c(-c2cc(Br)ccc2O)n[nH]c1=S,,inactive: 2.61%
CC1C(=O)CC(c2ccco2)NC1c1ccco1 (stereo not drawn),"inconclusive [inhibitor, single point]",
Cc1cc(C)c2c(n1)nn1c(N3CCN(Cc4ccccc4)CC3)cc(C)nc21,"inconclusive [inhibitor, partial curve]",
CCn1c(=O)c(C(=O)NCCc2ccccc2)c(O)c2ccccc21,,inactive: -0.466%

SMILES,Potency,"activity, negative = inhibition"
O=C(Cc1c[nH]c2ccccc12)N/N=C/c1ccccc1O,"inconclusive [inhibitor, single point]",
OC[C@@H]1O[C@@H](N2CCN([C@@H]3O[C@@H](CO)[C@@H](O)[C@H](O)[C@H]3O)CC2)[C@@H](O)[C@H](O)[C@H]1O,,inactive: -4.11% [at 13.5 µM]
CCOC(=O)/C(=N\Nc1ccccc1[N+](=O)[O-])c1csc(N)n1,"inconclusive [inhibitor, single point]",
O=C(O)c1ccc2c(c1)CCC2,,inactive: 18.6%
CCOC(=O)c1cccc(NC(=O)CSc2nnc(-c3cccnc3)n2CC)c1,"inconclusive [inhibitor, single point]",
CCOC(=O)C1(Cc2ccc(OC)cc2)CCN(C(=O)c2cncs2)CC1,"inconclusive [inhibitor, single point]",
CC1CCN(C(=S)c2cn(Cc3cccc(F)c3)c3ccccc23)CC1,"inconclusive [inhibitor, single point]",
CN1CCN(C(=O)C2=C[C@@H](C3CCCCC3)C[C@@H](OCCCCO)O2)CC1,"inconclusive [inhibitor, partial curve, poor fit]",
CCNc1nnc(CCn2nc(C)c(Br)c2C)s1,,inactive: -1.96%
COc1cccc(Nc2nc(CN3CCOCC3)nc3sc4c(c23)CCCC4)c1,,inactive: -4.24%
CC1=C(C(=O)OCC(C)C)C(c2cccc(F)c2)N2C(=O)C(C)SC2=N1 (stereo not drawn),active: 0.447 µM,
Cc1cc2n(n1)C(c1ccc3c(c1)OCO3)Nc1c(C)cccc1-2 (stereo not drawn),"inconclusive [inhibitor, single point]",
OCCC1CN(Cc2cccn2-c2ncccn2)CCN1C1CCCC1 (stereo not drawn),,inactive: -8.92%
Cc1ccc(S(=O)(=O)NCC2CCC(C(=O)NCc3ccccn3)CC2)cc1 (stereo not drawn),active: 7.94 µM,
COc1ccc(-n2nnnc2SCC(=O)N2CCCC2)cc1OC,,inactive: 2.65%
COc1ccccc1OC(=O)c1cc(Cl)nc2ccccc12,"inconclusive [inhibitor, single point]",
Oc1ccc(Br)cc1C=Nc1ccc2[nH]ncc2c1,"inconclusive [inhibitor, single point]",
CSc1ncccc1C(=O)Nc1ccc(S(=O)(=O)Nc2nccs2)cc1,"inconclusive [inhibitor, partial curve]",
C=CCN1C(=O)/C(=C\c2cc(Br)c(OCc3ccccn3)c(OC)c2)SC1=S,active: 0.282 µM,
COc1ccccc1Nc1nc(-c2ccc3c(c2)NC(=O)CO3)cs1,"inconclusive [inhibitor, partial curve]",
Cc1ccc(NC(=S)N(C)Cc2cn(C)c3ccccc23)cc1,,inactive: 2.14%
O=C(O)c1ccc(Cl)c(S(=O)(=O)Nc2ccccc2Cl)c1,,inactive: 0.312%
CN(C)CCNC(=O)c1cc2ccccc2oc1=O,"inconclusive [inhibitor, single point]",
Cc1ccc2c(c1)cc(CN(Cc1ccc3c(c1)OCO3)S(=O)(=O)c1ccccc1)c1nnnn12,"inconclusive [inhibitor, single point]",
